Measurements from PMC9477738, “PIF4 enhances DNA binding of CDF2 to co-regulate target gene expression and promote Arabidopsis hypocotyl cell elongation” (Nature Plants, 2022).
Results are given in words; binding and its absence hold for the method and conditions named. For some assays here: In cells and extracts the contact can be indirect. Some binding calls cover weakened binding; strength is not graded here. Tags and fused reporters may be left off the sequences shown. One block for each binder: values may come before it.

Legend:
[1] = molecular target: T1, 2HA-CDF2-N (CDF2 residues 1-201), synthesized in a cell-free system (Arabidopsis thaliana) (UniProt Q93ZL5); assay: pull-down; proteins synthesized in wheat germ extract, mixed in IP buffer (22 mM Tris-HCl pH 7.5, 84 mM NaCl, 1.1 mM EDTA, 0.11% Triton X-100) at 4 °C; antibody-coated Dynabeads Protein G (anti-Myc by the methods, anti-HA by the results); immunoblot with anti-HA and anti-Myc
T1 sequence: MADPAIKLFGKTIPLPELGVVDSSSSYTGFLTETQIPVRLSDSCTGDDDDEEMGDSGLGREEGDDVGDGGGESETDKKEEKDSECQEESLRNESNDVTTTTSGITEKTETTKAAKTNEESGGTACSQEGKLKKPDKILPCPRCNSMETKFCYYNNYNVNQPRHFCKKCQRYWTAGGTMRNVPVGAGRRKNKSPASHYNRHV

[2] = molecular target: T2, 2HA-CDF2 full length, synthesized in a cell-free system (Arabidopsis thaliana) (UniProt Q93ZL5); assay: as above
T2 sequence: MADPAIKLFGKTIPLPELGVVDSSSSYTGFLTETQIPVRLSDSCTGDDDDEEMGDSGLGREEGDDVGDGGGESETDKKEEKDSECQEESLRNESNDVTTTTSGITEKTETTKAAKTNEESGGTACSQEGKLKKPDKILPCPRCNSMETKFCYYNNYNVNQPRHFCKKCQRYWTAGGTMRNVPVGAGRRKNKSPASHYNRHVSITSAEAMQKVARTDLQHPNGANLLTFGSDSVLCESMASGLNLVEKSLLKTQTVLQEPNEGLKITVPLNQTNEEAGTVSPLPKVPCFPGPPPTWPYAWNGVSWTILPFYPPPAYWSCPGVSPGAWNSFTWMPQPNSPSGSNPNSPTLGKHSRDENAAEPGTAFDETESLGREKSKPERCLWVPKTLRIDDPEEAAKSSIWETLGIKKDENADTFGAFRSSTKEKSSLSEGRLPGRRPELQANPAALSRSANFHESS

[3] = molecular target: T3, 2HA-CDF2-C (CDF2 residues 202-457), synthesized in a cell-free system (Arabidopsis thaliana) (UniProt Q93ZL5); assay: as above
T3 sequence: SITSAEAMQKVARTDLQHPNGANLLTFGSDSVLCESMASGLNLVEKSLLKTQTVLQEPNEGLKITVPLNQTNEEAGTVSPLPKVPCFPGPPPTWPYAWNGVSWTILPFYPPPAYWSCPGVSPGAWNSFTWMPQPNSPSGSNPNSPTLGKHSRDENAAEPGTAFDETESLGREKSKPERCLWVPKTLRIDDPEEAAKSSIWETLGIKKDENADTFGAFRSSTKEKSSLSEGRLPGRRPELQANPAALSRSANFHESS

[4] = molecular target: T4, MBP-PIF4^bHLH (bHLH DNA-binding domain of PIF4 fused to N-terminal maltose binding protein) (Arabidopsis thaliana) (UniProt Q8W2F3); assay: SEC; gel filtration of MBP-CDF2^DOF and MBP-PIF4^bHLH together, fractions on SDS-PAGE; both purified
T4 sequence: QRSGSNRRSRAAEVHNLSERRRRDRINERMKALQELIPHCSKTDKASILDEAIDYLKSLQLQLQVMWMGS

[5] = molecular target: MBP-CDF2^DOF (DOF DNA-binding domain of CDF2 fused to N-terminal maltose binding protein) (Arabidopsis thaliana) (UniProt Q93ZL5); assay: SEC; gel filtration of a single MBP fusion protein (self-association); HiLoad 200, 25 mM Bis-Tris pH 8.0, 150 mM NaCl; both purified
[6] = molecular target: T5, PIF4-TAP (PHYTOCHROME-… FACTOR 4 with 9xMyc-6xHis-3xFlag) expressed from 35S::PIF4-TAP in Arabidopsis (Arabidopsis thaliana) (UniProt Q8W2F3); assay: co-IP; anti-Myc antibody on Dynabeads Protein G; nuclear proteins of 6-day-old SD-grown F1 seedlings (35S::PIF4-TAP x CDF2::3HA-CDF2); 0.5% Triton X-100, 1 mM EDTA, 20 mM Tris-HCl pH 7.5, 100 mM NaCl; 45 min at 4 °C; immunoblot with anti-HA and anti-Myc
T5 sequence: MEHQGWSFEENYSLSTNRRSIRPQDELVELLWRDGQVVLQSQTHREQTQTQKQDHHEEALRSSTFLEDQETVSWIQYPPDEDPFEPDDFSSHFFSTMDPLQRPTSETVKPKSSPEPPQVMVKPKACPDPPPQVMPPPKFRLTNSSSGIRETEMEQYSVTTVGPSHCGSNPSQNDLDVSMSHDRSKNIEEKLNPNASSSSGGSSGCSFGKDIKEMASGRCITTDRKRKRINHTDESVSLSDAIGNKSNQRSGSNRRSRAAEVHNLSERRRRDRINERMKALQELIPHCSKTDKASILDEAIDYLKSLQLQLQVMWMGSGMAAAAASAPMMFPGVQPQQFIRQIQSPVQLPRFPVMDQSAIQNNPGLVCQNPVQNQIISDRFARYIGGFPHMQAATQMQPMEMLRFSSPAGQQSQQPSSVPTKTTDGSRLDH

B3: MBP-CDF2^DOF (DOF DNA-binding domain of CDF2 fused to N-terminal maltose binding protein) (domain or fragment, UniProt Q93ZL5 133-201)
chain: KPDKILPCPRCNSMETKFCYYNNYNVNQPRHFCKKCQRYWTAGGTMRNVPVGAGRRKNKSPASHYNRHV
- binding [4]: no binding
- binding [5]: no binding

B4: 3HA-CDF2 (CYCLING DOF FACTOR 2) expressed from CDF2::3HA-CDF2 in Arabidopsis (protein, UniProt Q93ZL5 1-457)
chain: T2 sequence
- binding [6]: binds

Other lines, results leading:

- binding [1]: no binding
- binding [2]: no binding
B1: PIF4-N-6Myc (PIF4 residues 1-248), synthesized in a cell-free system (domain or fragment, UniProt Q8W2F3 1-248)
chain: MEHQGWSFEENYSLSTNRRSIRPQDELVELLWRDGQVVLQSQTHREQTQTQKQDHHEEALRSSTFLEDQETVSWIQYPPDEDPFEPDDFSSHFFSTMDPLQRPTSETVKPKSSPEPPQVMVKPKACPDPPPQVMPPPKFRLTNSSSGIRETEMEQYSVTTVGPSHCGSNPSQNDLDVSMSHDRSKNIEEKLNPNASSSSGGSSGCSFGKDIKEMASGRCITTDRKRKRINHTDESVSLSDAIGNKSNQ

- binding [3]: no binding
- binding [1]: binds
- binding [2]: binds
B2: PIF4-C-6Myc (PIF4 residues 249-431), synthesized in a cell-free system (domain or fragment, UniProt Q8W2F3 249-430)
chain: RSGSNRRSRAAEVHNLSERRRRDRINERMKALQELIPHCSKTDKASILDEAIDYLKSLQLQLQVMWMGSGMAAAAASAPMMFPGVQPQQFIRQIQSPVQLPRFPVMDQSAIQNNPGLVCQNPVQNQIISDRFARYIGGFPHMQAATQMQPMEMLRFSSPAGQQSQQPSSVPTKTTDGSRLDH
